# Reference: the supplement of paper PMC4723716
# ± gives the uncertainty stated by the source. In all, about 9,900 compounds were measured (“viability index relative to DMSO control”: median about 1, lowest 2% from about 0.85 on). The list shows a part of the results.
# System: Plasmodium falciparum NF54 stage V gametocytes
# Test: viability index relative to DMSO control (fraction); higher = less gametocyte killing
# Conditions: 2.5 µM, library set: Broad Institute DOS, incubation time: 72 h
# Method in brief: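 In 1,536-well plates, 10 µl of serum-free medium holding P. falciparum NF54 stage V gametocytes (0.75% gametocytemia, 1.25% hematocrit) received compound at 2.5 µM for 72 hr at 37°C in low oxygen. After one to two hours with 3 µl of 2.5 µM MitoTracker Red CMXRos containing 0.13% saponin, red particles of 20–70 µm2 were counted in a single field per well. Viability index is reported as the particle count over the plate mean of wells treated with solvent only.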
row,SMILES,viability index
1,COc1ccc(S(=O)(=O)Nc2ccc3c(c2)C(=O)N([C@@H](C)CO)C[C@@H](C)[C@@H](CN(C)Cc2ccc(C(F)(F)F)cc2)OCCCC[C@H](C)O3)cc1,0.994 ± 0.023
2,O=C(CN1CCOCC1)N1[C@H](CO)[C@@H]2c3ccccc3NC[C@@H]21,1.01 ± 0.028
3,Cc1noc(C)c1NC(=O)N(C)C[C@@H]1OCCCC[C@H](C)Oc2ccc(NC(=O)Nc3ccc(C(F)(F)F)cc3)cc2C(=O)N([C@H](C)CO)C[C@@H]1C,1.05 ± 0.09
4,N#Cc1cccc(-c2ccc3c(c2)[C@H]2[C@H](CCN2S(=O)(=O)c2ccc(F)cc2)[C@H](CO)N3)c1,1.09 ± 0.017
5,COc1cccc(C#Cc2ccc([C@@H]3[C@H](C#N)N(C(=O)c4ccccn4)[C@H]3CO)cc2)c1,0.929 ± 0.051
6,CN1C(=O)c2cc(NC(=O)c3ccc4c(c3)OCO4)ccc2OC[C@H]2O[C@H](CC(=O)O)CC[C@H]21,1.16 ± 0.026
7,O=C(C1CC1)N1CC2(C1)[C@H](c1ccccc1)[C@H](CO)N2S(=O)(=O)c1ccccc1,1.02 ± 0.046
8,C[C@H]1CN([C@@H](C)CO)C(=O)c2cccc(NC(=O)Nc3ccc(C(F)(F)F)cc3)c2O[C@@H]1CN(C)S(=O)(=O)c1cn(C)cn1,1.06 ± 0.045
9,COc1ccc2c3c([C@H](CO)N(C[C@]33CN(C3)C(=O)CC3CC3)C(=O)C3CCCC3)n(C)c2c1,0.897 ± 0.036
10,O=C(NCCc1ccncc1)[C@@H]1[C@@H](CO)[C@@H]2Cn3c(cccc3=O)[C@H]1N2Cc1ccccc1F,1.066 ± 0.0064
11,O=C(C[C@H]1CC[C@@H]2[C@H](COC[C@H](O)CN2C(=O)c2ccccc2F)O1)NCc1ccc(Cl)c(Cl)c1,1.08 ± 0.019
12,O=C(C[C@H]1CC[C@@H]2NC[C@@H](O)COC[C@H]2O1)NCCc1ccncc1,1 ± 0.067
13,O=C(c1ccccc1)N1C[C@@H]2[C@H](c3ccccc31)[C@H](CO)N2Cc1ccccn1,1.06 ± 0.026
14,CCS(=O)(=O)N1Cc2cc(C(=O)N(C)C)nc(-c3cccc(-c4ccc(C#N)cc4)c3)c2[C@H]1CCO,1.046 ± 0.005
15,C=C(C)C[C@@H]1CCn2nncc2COCCNC1=O,1.07 ± 0.019
16,C[C@H]1CN([C@@H](C)CO)C(=O)CCCn2nncc2CO[C@@H]1CN(C)S(=O)(=O)c1ccc2c(c1)OCCCO2,1.03 ± 0.036
17,O=C(C1CCOCC1)N1[C@H](CO)[C@@H](c2ccccc2)C12CN(CCC(F)(F)F)C2,1.13 ± 0.0078
18,CO[C@H]1CN(C)C(=O)c2cc(NC(=O)C3CCOCC3)ccc2OC[C@@H](C)NC[C@@H]1C,1.07 ± 0.017
19,O=C(C[C@@H]1C=C[C@H](NC(=O)Cc2cccnc2)[C@H](CO)O1)NCc1ccc2c(c1)OCO2,1.15 ± 0.087
20,CC(=O)N1[C@@H]2CN(C(=O)c3ccc(F)cc3)c3ccccc3[C@@H]2[C@@H]1CO,1.03 ± 0.079
21,O=C(CCN1CCCCC1)N[C@H]1CC[C@H](CCn2cc(-c3cccc(F)c3)nn2)O[C@@H]1CO,1.01 ± 0.059
22,COCC(=O)N1C[C@H]2[C@@H](c3ccccc31)[C@H](CO)N2C(=O)c1ccccc1F,0.951 ± 0.069
23,O=C(C1CCOCC1)N1CC(=O)N2[C@H](C1)[C@@H](c1ccc(C#CCc3ccccc3)cc1)[C@@H]2CO,1.06 ± 0.041

row,SMILES,viability index
1,Cc1ccc(S(=O)(=O)N[C@@H]2C=C[C@H](CC(=O)NCc3ccc(Cl)c(Cl)c3)O[C@@H]2CO)cc1,0.927 ± 0.049
2,O=C(Nc1ccc(F)cc1)N1CC(=O)N2[C@H](CO)[C@@H](c3ccc(-c4cccc(F)c4)cc3)[C@@H]2C1,1.02 ± 0.066
3,COCC(=O)N1[C@H](C#N)[C@H](c2ccccc2-c2ccccc2F)[C@H]1CO,1.13 ± 0.14
4,COc1ccc2c3c([nH]c2c1)[C@H](CO)N(C[C@]31CCN(Cc2cccnc2)CC1)C(=O)c1ccc(F)cc1,1.019 ± 0.0041
5,COc1ccc2c3c([nH]c2c1)[C@H](CO)N(C[C@]31CN(C1)C(=O)Nc1cccc(F)c1)C(=O)NC1CCCC1,0.991 ± 0.026
6,COc1ccc(S(=O)(=O)N2C[C@@H](O)COC[C@H]3O[C@H](CC(=O)N[C@@H]4CCN(Cc5ccccc5)C4)CC[C@@H]32)cc1,1.08 ± 0.032
7,O=C(Cc1cccnc1)N1CC(=O)N2[C@H](CO)[C@@H](c3ccc(/C=C/c4ccccc4)cc3)[C@H]2C1,1.01 ± 0.019
8,COc1ccc2c3c([C@@H](CO)N(C[C@]33CCN(CC4CC4)CC3)C(=O)c3ccncc3)n(C)c2c1,0.937 ± 0.076
9,CO[C@H]1CC[C@@H]2CCN(C)C(=O)[C@@H](C)N(C)C(=O)c3cccc(C#N)c3OC[C@H]1O2,0.96924 ± 3.9e-05
10,COc1ccc2c3c([C@@H](CO)N(C[C@]33CN(CC4CC4)C3)C(=O)Nc3c(C)noc3C)n(C)c2c1,1.03 ± 0.17
11,COCC#Cc1ccc([C@@H]2[C@@H](CO)N3C(=O)CN(C(=O)CN4CCOCC4)C[C@@H]23)cc1,1.073 ± 0.0026
12,O=C(C[C@@H]1CC[C@@H]2NC[C@@H](O)COC[C@H]2O1)Nc1ccc(-c2ccccc2)cc1,1.06 ± 0.024
13,CO[C@@H]1CN(C)C(=O)c2cc(NC(=O)NC(C)C)ccc2OC[C@H](C)N(Cc2ccccc2)C[C@H]1C,0.984 ± 0.061
14,O=C(C[C@H]1CC[C@H]2[C@@H](COC[C@@H](O)CN2Cc2ccc(Oc3ccccc3)cc2)O1)N1CCN(c2ccccc2)CC1,1.08 ± 0.14
15,COc1cccc(S(=O)(=O)N2C[C@H](O)COC[C@@H]3O[C@H](CC(=O)N4CCN(c5ccccc5)CC4)CC[C@H]32)c1,0.96247 ± 0.00031
16,C/C=C/c1ccccc1[C@@H]1[C@@H](CO)N(C(=O)CN2CCOCC2)[C@H]1C#N,1.11 ± 0.11
17,CCc1nc(N2[C@@H](C#N)[C@H](c3ccccc3-c3ccccc3C)[C@@H]2CO)sc1C,0.81 ± 0.063
18,Cc1noc(C)c1S(=O)(=O)N(C)C[C@@H]1OCCCC[C@@H](C)Oc2ccc(NC(=O)CCC(F)(F)F)cc2C(=O)N([C@H](C)CO)C[C@H]1C,1.04 ± 0.022
19,COCCNC(=O)C[C@H]1CC[C@H]2[C@H](COc3ccc(NS(=O)(=O)c4ccc(Cl)cc4)cc3C(=O)N2C)O1,1.13 ± 0.084
20,O=C(C[C@H]1CC[C@@H]2NC[C@@H](O)COC[C@H]2O1)Nc1ccc(-c2ccccc2)cc1,1.01 ± 0.098
21,COCCNC(=O)c1cc2c(c(-c3cccc(-c4cccc(OC)c4)c3)n1)[C@@H](CCO)N(S(=O)C(C)(C)C)C2 (stereo not given in full),1.022 ± 0.0092
22,CCCNC(=O)N1C[C@]2(CCN(CC2)C(=O)C2CCOCC2)c2c([nH]c3cc(OC)ccc23)[C@@H]1CO,1.034 ± 0.01
